The structures appear in SMILES notation. The whole screen tested about 150,000 compounds, of which about 540 (0.36%) showed an effect of 50% or more. The list shows a part of the results.

The % Inhibition is the relative decrease from the control value, in per cent.

The subject of this assay is Plasmodium falciparum. Description: Primary screen in NF54 nanoGlo assay, in single point, at 2uM, 72h; a lower Z score goes with more inhibition. The settings on record: timepoint 72 hour. The class given is functional, Erythrocyte.
`CN[C@@H](C)c1ccccc1Br`: the “% Inhibition” value is on record as -11% and the Z score is on record as 1.09.

As to `Cc1nc[nH]c1-c1nccn1Cc1nc2ccccc2s1`, the “% Inhibition” value is -14% and the Z score is listed as 2.63.

`Cc1noc(C)c1CCn1cnn(C)c1=O`: the “% Inhibition” value was -2% and the Z score was determined as 0.24.

With `COc1ccc2ccccc2c1-c1cn([C@@H](C)c2nnn[nH]2)nn1`, the “% Inhibition” value is given as -15% and the Z score came out at 2.47.

Regarding `CCc1ccccc1NC(=O)c1c(NC(=O)c2ccccc2Cl)sc(-c2ccccc2)c1C`, the “% Inhibition” value was found to be 11% and the Z score was -1.25.

With `CC(NCC(c1ccco1)N1CCCC1)c1cnnn1C` (stereo not drawn), the “% Inhibition” value is listed as -14% and the Z score was determined as 2.77.

With `Cc1nc([C@@](C)(NCc2ccnc(N(C)C)c2)C2CC2)no1`, the “% Inhibition” value was -15% and the Z score amounted to 2.32.

For `CC(O)CC1CCCN1CCCc1ccccc1` (stereo not drawn), the “% Inhibition” value is recorded as -9% and the Z score was determined as 0.84.

Turning to `COc1c(C(=O)Nc2ccc3c(c2)OCO3)sc2cc(Cl)ccc12`, the “% Inhibition” value was -8% and the Z score worked out at 1.44.

As to `COC[C@H](O)CNC(=O)Nc1cc(Cl)c(C)cc1Cl`, the “% Inhibition” value was -4% and the Z score is 0.69.

With `Cc1oncc1NC(=O)C[C@H](C)c1ccc(F)cc1F`, the “% Inhibition” value is listed as 0% and the Z score is -0.01.

Turning to `Cc1n[nH]c(C)c1CC(=O)N(C)Cc1nc(C(C)C)no1`, the “% Inhibition” value was -4% and the Z score amounted to 0.76.

As for `Cc1ccc(N2CCN(Cc3nc(C(=O)NC[C@H]4CCCO4)co3)CC2)cc1`, the “% Inhibition” value is -8% and the Z score turned out to be 1.26.

Take `CCC(C(=O)Nc1cccnc1)(C(F)(F)F)C(F)(F)F`: the “% Inhibition” value is recorded as -14% and the Z score came to 2.17.

Regarding `CCOC(=O)Nc1cc(C(=O)OC)ccc1C`, the “% Inhibition” value is listed as -10% and the Z score amounted to 1.49.

With `CN(C(=O)[C@@H]1CCCN1C(N)=O)C1CC1`, the “% Inhibition” value was found to be 7% and the Z score is -0.88.

Regarding `O=C(Cn1c(=O)n(CCc2cccs2)c(=O)c2sccc21)Nc1ccc(Cl)cc1`, the “% Inhibition” value is 13% and the Z score is reported as -1.65.

Turning to `C=CCC(C(=O)N1CCC(c2cnccn2)C1)c1ccccc1` (stereo not drawn), the “% Inhibition” value is listed as -3% and the Z score worked out at 0.41.

Consider `CC(C)(O)[C@H]1CCN(c2ccc3cc(Cl)ccc3n2)C1`, for which the “% Inhibition” value is reported as -5% and the Z score is recorded as 0.76.

On to `Cc1cc(C)cc(NC(=O)C2CCN(c3c(C(=O)N4CCCCC4)cnc4snc(C)c34)CC2)c1`, for which the “% Inhibition” value is recorded as -2% and the Z score turned out to be 0.33.

`COc1ccc(CN(C(=O)CC#N)C2CCCCC2C)cc1OC` (stereo not drawn): the “% Inhibition” value was -4% and the Z score came out at 0.77.

Regarding `Cc1[nH]c(=O)c(C#N)c(C)c1CCC(=O)N1CCO[C@@H](C)C1`, the “% Inhibition” value turned out to be 1% and the Z score is -0.07.

For `O=C1CC(C2CCCCN2C(=O)c2ccc(-c3nc(C4CC4)no3)cc2)CN1` (stereo not drawn), the “% Inhibition” value is reported as -12% and the Z score was found to be 1.51.

Regarding `CC(C)CC1NC2(CCN(C(=O)c3ccccc3)CC2)N(C(C)c2ccccc2)C1=O` (stereo not drawn), the “% Inhibition” value is -6% and the Z score is 1.08.

As for `O=C(Cc1nc2ccccc2c(=O)[nH]1)c1c[nH]c2ccccc12`, the “% Inhibition” value came out at 19% and the Z score was -2.47.

As for `Cc1cnccc1CC(=O)N[C@H](C#N)C(C)(C)C`, the “% Inhibition” value is listed as -7% and the Z score amounted to 0.97.

For `Cc1ccc([C@H](C)NS(=O)(=O)N2CCCC2)cn1`, the “% Inhibition” value was -8% and the Z score is 1.19.

As to `CCN1C(=O)c2cccc3c(NC(=O)c4ccc(-c5nc6ccccc6s5)s4)ccc1c23`, the “% Inhibition” value was -5% and the Z score stood at 0.85.

For `COc1ccc(-n2cc(-c3ccccc3)nc2NC(=O)CN(CC(C)C)S(=O)(=O)c2ccc(Cl)cc2)cc1OC`, the “% Inhibition” value is given as -6% and the Z score worked out at 0.88.

Consider `CCn1ccnc1Cn1ccnc1-c1ccc(N(C)C)nc1`, for which the “% Inhibition” value amounted to 10% and the Z score is -1.83.

Turning to `CCCn1cnnc1CN(C)Cc1nccn1-c1ccc(OC)cc1`, the “% Inhibition” value is reported as -15% and the Z score is 2.29.

As to `CCN(CC)C1=Nc2ccccc2Oc2ccc(NC(=O)c3cccc(F)c3)cc21`, the “% Inhibition” value turned out to be 4% and the Z score is recorded as -0.64.

Take `COc1cc(OC)nc(C(=O)N2CC[C@H](Cc3nccs3)C2)n1`: the “% Inhibition” value was -6% and the Z score was determined as 0.95.

As to `CC1(C)Oc2cc(S(=O)(=O)NC3CCCCC3)ccc2NC1=O`, the “% Inhibition” value stood at 33% and the Z score is recorded as -4.4.

As for `COC(=O)CN1C(=O)CCn2nc(-c3ccc(C)cc3)cc21`, the “% Inhibition” value is -12% and the Z score turned out to be 1.59.

Turning to `CCCCN(C)C(=O)c1cn2ccnc(-c3ccccc3)c2n1`, the “% Inhibition” value was 31% and the Z score is listed as -3.56.

With `Cn1ccnc1COc1c(F)cccc1F`, the “% Inhibition” value was -6% and the Z score is 0.71.

With `CCCC1(CCC)C(=O)N(CCC#N)C(=O)N1CCC#N`, the “% Inhibition” value is reported as -15% and the Z score was found to be 2.01.

Turning to `C[C@@H](c1ccccc1)N(C)C(=O)C(=O)Nc1cnn(-c2ccncc2)c1`, the “% Inhibition” value is 3% and the Z score was -0.42.

Consider `O=C(NC1CCOCC1)NC1CCOC(C2CC2)C1` (stereo not drawn), for which the “% Inhibition” value is given as -11% and the Z score was found to be 1.68.

For `Cc1cc(NC(=O)Nc2nc3c(s2)CCCC3)[nH]n1`, the “% Inhibition” value is reported as -28% and the Z score came out at 3.27.

For `COc1ccccc1CC(=O)NCc1cncc(-c2ccoc2)c1`, the “% Inhibition” value came to 19% and the Z score was -2.44.

On to `C[C@H](NC(=O)c1ccc2[nH]c3c(c2c1)CCCC3)C1CCN(CC(F)(F)F)CC1`, for which the “% Inhibition” value is recorded as -6% and the Z score came out at 0.95.

On to `O=C(NCCc1ccccn1)c1cccs1`, for which the “% Inhibition” value is given as 29% and the Z score is reported as -3.32.

In the case of `CCOC(=O)[C@@](NC(=O)CC)(N1CCc2ccccc2C1)C(F)(F)F`, the “% Inhibition” value came out at 32% and the Z score is recorded as -3.62.

`Cn1nc2c(c1NS(=O)(=O)c1cscc1C(F)F)CCC2`: the “% Inhibition” value was -2% and the Z score stood at 0.29.

As to `COc1ccc2c(c1)CCc1c(C(=O)N3CCN(c4ccccc4F)CC3)n[nH]c1-2`, the “% Inhibition” value is recorded as -23% and the Z score was found to be 2.02.

With `COc1cccc(Cn2c(Oc3ccc(-c4ccccc4)cc3)nc3c2c(=O)n(C)c(=O)n3C)c1`, the “% Inhibition” value was determined as 5% and the Z score is -0.65.

For `COc1cccc(CCN2C(=O)CC[C@@H]3CN(C(=O)c4ccc(C(F)(F)F)cc4)CC[C@@H]32)c1`, the “% Inhibition” value is reported as -14% and the Z score worked out at 2.1.

For the compound `O=C(Nc1ccc(F)cc1)c1nnc([C@H]2CCCN(S(=O)(=O)c3ccc(F)c(Cl)c3)C2)s1`, the “% Inhibition” value is reported as -1% and the Z score is recorded as 0.19.

For `CCOC(=O)c1cc(C2CC2)nc2c1c(=O)n(CC(=O)NC1CCCCC1)c(=O)n2C`, the “% Inhibition” value is recorded as -3% and the Z score came out at 0.42.

As to `CCN(Cc1nc(COC)no1)C(=O)CN1CCCCCC1=O`, the “% Inhibition” value was -8% and the Z score stood at 1.68.

With `COCC1(C(=O)N(C)[C@@H](C)c2cc3ccccc3[nH]2)CCC1`, the “% Inhibition” value is given as 4% and the Z score was -0.83.

Take `COc1ccc(S(=O)(=O)N2CCN(Cc3nonc3C)CC2)cc1`: the “% Inhibition” value was -6% and the Z score was found to be 0.78.

(Values after ChEMBL document CHEMBL4888484, “Replenishing the malaria drug discovery pipeline: Screening and hit evaluation of the MMV Hit Generation Library 1 (HGL1) against asexual blood stage Plasmodium falciparum ,using a nano luciferase reporter read-out” (2022).)
